Patent EP0252380B1, “Antibiotic LL-E19020 alpha and beta” (AMERICAN CYANAMID COMPANY, priority 1986, dated 1988)

System: Eimeria mitis
Experiment: Anticoccidial embryonated egg assay - E. mitis
Design: key: T = Toxic; A = Active; a = Marginal Activity; O = Inactive
Conditions: active = 80% or greater reduction of oocysts

Compound	Performance Rating (0.25 milligrams of drug per embryo)	Performance Rating (0.5 milligrams of drug per embryo)	Performance Rating (1 milligram of drug per embryo)
C/C=C\C=C\[C@@H]1O[C@](O)([C@H](CO[C@H]2C[C@@H](OC)[C@@H](O[C@@H]3C[C@@H](OC)[C@@H](O[C@H]4C[C@H](OC)[C@H](O)[C@H](C)O4)[C@H](C)O3)[C@@H](C)O2)C(=O)NC/C=C/C=C(\C)[C@@H](OC)[C@H](C)[C@H]2C[C@H](O)[C@H](/C=C/C=C/C=C/C(=O)O)O2)[C@H](OC(=O)Cc2ccccc2)[C@H](O)C1(C)C [LL-E19020 alpha]	O	A	A
C/C=C/C=C/[C@@H]1O[C@](O)([C@H](CO[C@H]2C[C@H](OC)[C@H](O[C@@H]3C[C@H](OC)[C@@H](O[C@H]4C[C@H](OC)[C@H](O)[C@H](C)O4)[C@H](C)O3)[C@H](C)O2)C(=O)NC/C=C/C=C(\C)[C@H](OC)[C@@H](C)[C@@H]2C[C@H](O)[C@@H](/C=C/C=C/C=C\C(=O)O)O2)[C@@H](O)[C@H](OC(=O)Cc2ccccc2)C1(C)C [LL-E19020 beta]			O
